Among all 390,000 compounds or so, about 4,700 (1.2%) were called active. Inconclusive means that the source gave no clear call. Such entries were picked first, then a sample of the others. Calls follow the shape of the dose curve; as a rule, active = well fitted inhibition curve with a large enough effect; inconclusive = small, poorly fitted or top-dose-only effect, or another doubt; inactive = no such curve, though single readings can be large or run the other way. Potencies beside an inconclusive call are fits to weak or partial responses and may not hold up.
Each molecule was assayed against DNA polymerase eta (Homo sapiens) (UniProt Q9Y253) (assay: qHTS for Inhibitors of Polymerase Eta). Details: recombinant Pol eta, fluorescent DNA replication assay; series mostly up to 114 µM; activity change, negative = inhibition: at the top concentration.
Summary of the method: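 Fluorescent replication assay: 50 nM final substrate added after a 15 min room-temperature compound preincubation with 10 nM enzyme. Signal taken at 0 min and again at 10 min.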
% is scaled to controls: 0 for no effect and ±100 for the full control effect; potency is read from the fitted curve at half-maximal effect; tags tell the direction and shape of the fitted curve.

UniProt Q9Y253, sequence (Q9Y253 whole entry, looked up): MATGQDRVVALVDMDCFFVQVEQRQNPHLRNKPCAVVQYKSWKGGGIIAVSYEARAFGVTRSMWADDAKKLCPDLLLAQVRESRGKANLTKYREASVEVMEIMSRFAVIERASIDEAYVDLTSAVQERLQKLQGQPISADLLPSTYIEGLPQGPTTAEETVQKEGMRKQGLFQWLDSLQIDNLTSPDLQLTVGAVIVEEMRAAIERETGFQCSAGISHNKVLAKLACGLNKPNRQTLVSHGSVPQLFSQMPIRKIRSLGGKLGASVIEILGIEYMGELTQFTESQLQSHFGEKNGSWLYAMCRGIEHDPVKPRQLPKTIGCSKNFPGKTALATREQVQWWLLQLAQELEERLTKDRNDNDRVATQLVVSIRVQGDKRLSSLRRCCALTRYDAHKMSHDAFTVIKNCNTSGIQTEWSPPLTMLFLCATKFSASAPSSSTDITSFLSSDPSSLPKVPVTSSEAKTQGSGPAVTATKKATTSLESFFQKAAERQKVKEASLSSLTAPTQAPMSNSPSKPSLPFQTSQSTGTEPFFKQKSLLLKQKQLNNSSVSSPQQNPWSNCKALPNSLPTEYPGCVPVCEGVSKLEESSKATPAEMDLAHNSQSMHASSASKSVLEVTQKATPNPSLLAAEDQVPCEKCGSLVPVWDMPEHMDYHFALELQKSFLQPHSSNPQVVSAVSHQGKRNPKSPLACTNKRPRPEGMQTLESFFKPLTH

Row | Structure (SMILES) | Potency | activity change, negative = inhibition
1 | CC(OC(=O)Cc1coc2ccc3ccccc3c12)C(=O)Nc1ncc(Cl)cc1Cl (configuration not stated) | inconclusive: 31.6 µM [inhibitor, single point] | 
2 | CCOc1ccc(C(=O)N2CCN(Cc3cc(=O)n4nc(-c5cccc(OC)c5)sc4n3)CC2)cc1 | inconclusive: 100 µM [inhibitor, partial curve, poor fit] | 
3 | CCC(C(=O)OCC(=O)c1ccc(OC)cc1OC)c1ccccc1 (configuration not stated) | active: 31.6 µM | 
4 | C=CCc1ccc(OCCOc2ccc(/C=N/n3cnnc3)cc2OCC)c(OC)c1 | inconclusive: 14.1 µM [inhibitor, partial curve, poor fit] | 
5 | O=C(c1cccs1)C1CCCN(Cc2nc(Cc3ccccc3F)no2)C1 (configuration not stated) |  | inactive: -16.5%
6 | CCCCC1=CC2=CC(=O)C(C)(OC(=O)CC)C(=O)C2=CN1Cc1ccco1 (configuration not stated) | inconclusive: 50.1 µM [inhibitor, partial curve] | 
7 | Nc1cc(C(=O)O)ccc1N1CCCCC1 | active: 10 µM | 
8 | O=C(COc1coc(CN2CCc3ccccc3C2)cc1=O)Nc1cccc([N+](=O)[O-])c1 | inconclusive: 22.4 µM [inhibitor, partial curve, poor fit] | 
9 | CCOC(=O)C1=C(CN2CCN(c3cc(C)ccc3C)CC2)NC(=O)NC1c1ccccc1 (configuration not stated) | inconclusive: 56.2 µM [inhibitor, partial curve] | 
10 | N=c1sccn1CC(=O)Nc1ccccc1Cc1ccccc1 |  | inactive: -5.72%
11 | CCOc1cc(Br)cc(C(c2c(C(=O)O)[nH]c3ccccc23)c2c(C(=O)O)[nH]c3ccccc23)c1O | active: 79.4 µM | 
12 | CC(C)(C)c1ccc(OCCC(=O)OCC(=O)Nc2ccc(N3CCOCC3)cc2)cc1 | inconclusive: 89.1 µM [inhibitor, partial curve, poor fit] | 
13 | Cc1cc(SCC(=O)OCC(=O)NCc2ccc3c(c2)OCO3)c(C)cc1Br | inconclusive: 79.4 µM [inhibitor, partial curve, poor fit] | 
14 | CCc1c(O)cc(=O)n(-c2ccccc2)c1-c1ccccc1 | active: 31.6 µM | 
15 | CCc1ccc2oc(C(=O)NCCc3ccc(OC)c(OC)c3)cc(=O)c2c1 |  | inactive: -13.6%
16 | COc1ccc2c(=O)c3c(=O)n(Cc4ccco4)c(C(C)C)nc3oc2c1 | inconclusive: 89.1 µM [inhibitor, single point] | 
17 | CCN(CCNCC(O)COc1ccccc1C(C)C)c1cccc(C)c1 (configuration not stated) | inconclusive: 44.7 µM [inhibitor, full curve, poor fit] | 
18 | CC(Oc1ccc(S(=O)(=O)N2CCCC2)cc1[N+](=O)[O-])C(=O)NC1(C#N)CCCCC1 (configuration not stated) |  | inactive: -14.1%
19 | CCCCn1c(N)c(N(CC(C)C)C(=O)c2cc(-c3ccco3)nc3ccccc23)c(=O)[nH]c1=O | active: 28.2 µM | 
20 | C=CCOc1c(Br)cc(CNc2ccc(NC(=O)C(C)C)cc2)cc1OCC | inconclusive: 39.8 µM [inhibitor, single point] | 
21 | Cc1ccc2occ(C3N[C@H](C(=O)O)CS3)c(=O)c2c1 (some centres not stated) | inconclusive: 31.6 µM [inhibitor, single point] | 
22 | CCOC1=C/C(=C/c2c(N)n3nc(CC(=O)N4CCCC4)sc3nc2=O)C=CC1=O | inconclusive: 70.8 µM [inhibitor, partial curve, poor fit] | 
23 | N#Cc1c(-c2ccccc2)nc(SCC(=O)N(c2ccccc2)c2ccccc2)[nH]c1=O | inconclusive: 22.4 µM [inhibitor, full curve, poor fit] | 

Row | Structure (SMILES) | Potency | activity change, negative = inhibition
24 | CCC[C@@H]1C[C@@H](C(=O)N[C@H]([C@@H](C)O)[C@H]2O[C@H](SC)[C@H](O)[C@@H](O)C2O)N(C)C1 (some centres not stated) | inconclusive: 89.1 µM [inhibitor, single point] | 
25 | Clc1ccc(C2=C3CCCCn4c(-c5ccccc5)c[n+](c43)C2)cc1 | inconclusive: 39.8 µM [inhibitor, partial curve, poor fit] | 
26 | CCCNC(=O)c1c(N)n(-c2cccc(OC)c2)c2nc3ccccc3nc12 | inconclusive: 11.2 µM [inhibitor, full curve, poor fit] | 
27 | Cc1ccc(C)c(OCC(=O)Nc2ccc(S(=O)(=O)Nc3ncccn3)cc2)c1 | inconclusive: 89.1 µM [inhibitor, single point] | 
28 | COc1ccccc1Nc1nc2ccc(C)cc2n2cnnc12 | inconclusive: 25.1 µM [inhibitor, single point] | 
29 | Cc1ccc(/C=C2\CCn3c2nc2cc(C(=O)O)ccc2c3=O)c(C)c1 | active: 79.4 µM | 
30 | CC(=O)Nc1nonc1-c1nc2ccccc2n1Cc1ccccc1 | inconclusive: 35.5 µM [inhibitor, partial curve, poor fit] | 
31 | CC(=O)c1ccc(S(=O)(=O)NCCC(=O)OCC(=O)N(Cc2ccccc2)C(C)(C)C)cc1 |  | inactive: -3.39%
32 | Cc1ccc(-n2c(=S)[nH]c3sc4c(c3c2=O)CCC4)cc1 |  | inactive: -9.37%
33 | NC(=O)c1ccsc1NC(=O)COC(=O)c1ccc(Cl)cc1 |  | inactive: -2.12%
34 | CC(C)N(Cc1ccccc1)C(=O)COC(=O)C1CCN(c2ccc(C(F)(F)F)cn2)CC1 | inconclusive: 89.1 µM [inhibitor, partial curve, poor fit] | 
35 | Cc1ccc(C(C)C)c(OCCSc2nc(-c3cccs3)nc3cc(=O)[nH]n23)c1 | inconclusive: 89.1 µM [inhibitor, single point] | 
36 | Cc1ccc(NC(=O)COC(=O)c2ccc(Br)o2)cc1S(=O)(=O)N1CCCCC1 |  | inactive: -9.8%
37 | COc1ccc2nc(SCC(=O)N3CCCCCC3)c(C#N)cc2c1 | inconclusive: 39.8 µM [inhibitor, partial curve, poor fit] | 
38 | CCCS(=O)(=O)N1CCC(C(=O)NCc2ccco2)CC1 | inconclusive: 22.4 µM [inhibitor, partial curve, poor fit] | 
39 | O=C(NCC1COc2ccccc2O1)c1c[nH]c2ccc(S(=O)(=O)N3CCOCC3)cc2c1=O (configuration not stated) | inconclusive: 28.2 µM [inhibitor, partial curve] | 
40 | CCOc1ccc(-n2c(SCC(=O)N3CCc4ccccc43)nnc2-c2c[nH]c3ccccc23)cc1 | active: 5.62 µM | 
41 | Cc1ccc(CN2CCN(/N=C/c3ccc(O)c(O)c3)CC2)cc1 | inconclusive: 20 µM [inhibitor, full curve, poor fit] | 
42 | O=C1NCCc2c1[nH]c1ccccc21 | inconclusive: 39.8 µM [inhibitor, single point] | 
43 | O=C(CSc1ccccn1)Nc1ccc2c(c1)oc1ccccc12 | inconclusive: 39.8 µM [inhibitor, partial curve, poor fit] | 
44 | Nc1ccc2[nH]c(=S)sc2c1 | active: 22.4 µM | 
45 | CCCCCCCCCCCCCCCCCC(=O)NCC(COP(=O)([O-])OCC[N+](C)(C)C)OCC (configuration not stated) |  | inactive: -3.18% [at 57.1 µM]
46 | Cc1ccc(NC(=O)c2cccc(S(C)(=O)=O)c2)cc1 | inconclusive: 89.1 µM [inhibitor, single point] | 

Row | Structure (SMILES) | Potency | activity change, negative = inhibition
47 | Cc1cc(OC(=O)c2cc(F)c(F)cc2Cl)nc(C)n1 |  | inactive: -14.5%
48 | O=C(c1ccc2c3n(nc2c1)-c1ccccc1CO3)N1CCOCC1 |  | inactive: -13.8%
49 | CCNS(=O)(=O)c1ccc(NC(=O)c2ccc(Cn3cc(Br)cn3)o2)cc1 | inconclusive: 25.1 µM [inhibitor, partial curve, poor fit] | 
50 | CC1(C)CC[C@]2(C(=O)n3ccnc3)CC[C@]3(C)[C@H](C(=O)C=C4[C@@]5(C)C=C(C#N)C(=O)C(C)(C)[C@@H]5CC[C@]43C)[C@@H]2C1 | active: 3.55 µM | 
51 | NC(=S)NN=C1c2cc(Cl)ccc2-c2c1cc(Cl)cc2[N+](=O)[O-] |  | inactive: 2.23%
52 | O=C(CCN1C(=O)/C(=C/c2ccco2)SC1=S)Nc1ccc(C(=O)O)c(O)c1 | active: 4.47 µM | 
53 | Cc1ccccc1NC(=O)c1ccccc1NC(=O)c1ccccc1F | inactive | 
54 | O=[N+]([O-])c1ccc(C2CCCC/C2=N/OCc2ccccc2F)c([N+](=O)[O-])c1 (configuration not stated) | inconclusive: 89.1 µM [inhibitor, partial curve, poor fit] | 
55 | COc1cc2c(ccc3cc(OC)c(OC)c(O)c32)cc1O | active: 3.16 µM | 
56 | COc1cccc(/C=C(\C#N)c2nc3ccc(C)cc3[nH]2)c1 | active: 89.1 µM | 
57 | COc1ccc(S(=O)(=O)Nc2cccc3c2O[C@H](CN(C)C(=O)Nc2ccc(C(F)(F)F)cc2)[C@@H](C)CN([C@H](C)CO)C3=O)cc1 | inconclusive: 89.1 µM [inhibitor, partial curve, poor fit] | 
58 | CCCCOCC1CN(c2ccccc2)C(=O)CS1 (configuration not stated) | active: 20 µM | 
59 | O=C(O)c1cc(N/N=C/c2ccc(N3CCOCC3)s2)ccc1Cl | active: 11.2 µM | 
60 | Cc1cc(NC(=O)c2ccc(Cl)c(Cl)c2)ccc1-c1cc2ccccc2oc1=O | inconclusive: 79.4 µM [inhibitor, partial curve, poor fit] | 
61 | COc1ccc(Br)cc1CN1CCCC(C(=O)N2CCCCCC2)C1 (configuration not stated) | inconclusive: 89.1 µM [inhibitor, partial curve, poor fit] | 
62 | COc1ccc(S(=O)(=O)N(CC(=O)O)c2ccccc2)cc1 |  | inactive: -5.74%
63 | O=S(=O)(Nc1nc2ccccc2nc1-[n+]1cccc(N=C([O-])c2ccc(Cl)cc2)c1)c1ccccc1 | inconclusive: 14.1 µM [inhibitor, full curve, poor fit] | 
64 | Cc1ccn2c(=O)nc(SCC(=O)N3CCCCCC3)nc2c1 | inconclusive: 31.6 µM [inhibitor, single point] | 
65 | Cc1cc(Cl)ccc1NC(=O)C1CCN(S(=O)(=O)c2ccc3[nH]c(=O)ccc3c2)CC1 |  | inactive: -25.6%
66 | O=C(O)c1cccc(-n2cccc2/C=C/[N+](=O)[O-])c1 | active: 2.82 µM | 
67 | CSCCC1NC2(C(=O)Nc3ccc(Cl)cc32)[C@@H]2C(=O)N(C3CCCC3)C(=O)[C@H]12 (some centres not stated) | inconclusive: 100 µM [inhibitor, partial curve, poor fit] | 

Reference: PubChem BioAssay AID588591 (National Center for Advancing Translational Sciences (NCATS), 2011)
